Some of the results follow.

Test [1] has as its system HSkMC (human skeletal muscle cells). As to the kind of experiment: cytotoxicity call (relative viability < 0.9). The settings on record: 10 µM.
Test [2] relates to HepG2. As to the kind of experiment: cytotoxicity call (relative viability < 0.9). The conditions noted are these: 10 µM.
Test [3] concerns S. aureus RN4220. Nature of the test: growth inhibition call (relative growth <= 0.2). The settings on record: 50 µM.

On to `C[C@H]1CN([C@@H](C)CO)C(=O)Cc2cc(NC(=O)Nc3ccc(C(F)(F)F)cc3)ccc2O[C@H]1CN(C)CC1CCCCC1`, for which the cytotoxicity call in test [1] and in test [2] was “active” throughout. In addition, the growth inhibition call in test [3] was “inactive”.

As for `C[C@H]1CN([C@@H](C)CO)C(=O)c2cccc(NC(=O)Nc3cccc4ccccc34)c2O[C@@H]1CN(C)C(=O)NC1CCCCC1`, the cytotoxicity call in test [1] and in test [2] was “inactive” each time. Besides, the growth inhibition call in test [3] is “inactive”.

As for `COc1ccc(NC(=O)Nc2ccc3c(c2)CC(=O)N([C@@H](C)CO)C[C@@H](C)[C@@H](CN(C)C(=O)Nc2cccc4ccccc24)O3)cc1`, the cytotoxicity call in test [1] and in test [2] was “inactive” in each case. Besides, the growth inhibition call in test [3] was “inactive”.

Turning to `C[C@H](CO)N1C[C@H](C)[C@H](CN(C)C(=O)Nc2cccc(C(F)(F)F)c2)OCc2ccccc2-c2ccccc2C1=O`, the cytotoxicity call in test [1] and in test [2] was “inactive” in each case. Moreover, the growth inhibition call in test [3] was “inactive”.

`Clc1ccc(-c2cnc3ccc(-c4ccccc4)cn23)cc1`: the cytotoxicity call in test [1] and in test [2] was “inactive” each time. In test [3], the growth inhibition call was “inactive”.

In the case of `O=C(C[C@H]1CC[C@@H]2[C@H](COC[C@H](O)CN2S(=O)(=O)c2ccccc2)O1)NCCN1CCCC1`, the cytotoxicity call in test [1] and in test [2] was “inactive” in each case. The growth inhibition call in test [3] was “inactive”.

`Cc1[nH]c(/C=C2\C(=O)Nc3ccc(S(=O)(=O)Cc4c(Cl)cccc4Cl)cc32)c(C)c1C(=O)N1CCC[C@@H]1CN1CCCC1`: the cytotoxicity call in test [1] and in test [2] was “active” throughout. In test [3], the growth inhibition call was “inactive”.

Turning to `CC(C)(C)NCC(O)COc1cccc2c1CC(O)C(O)C2` (stereo not given), the cytotoxicity call in test [1] and in test [2] was “inactive” in each case. Besides, the growth inhibition call in test [3] is “inactive”.

Turning to `COc1ccc(S(=O)(=O)N(C)C[C@@H]2Oc3ccc(NS(=O)(=O)c4ccc(F)cc4)cc3C(=O)N([C@@H](C)CO)C[C@@H]2C)cc1`, the cytotoxicity call in test [1] and in test [2] was “inactive” in each case. In addition, the growth inhibition call in test [3] is “inactive”.

For `O[C@@H](Cc1ccccc1)[C@@H](/C=C/C1CC1)N(CC#Cc1ccccc1)Cc1ccccc1Br`, the cytotoxicity call in test [1] and in test [2] was “inactive” throughout. Further, the growth inhibition call in test [3] is “inactive”.

Source of the values: the antibiotic and cytotoxicity screens of Wong et al. (2023).
